Measured values published in the supplement of paper PMC7826260.
The list shows a part of the results. Viral Rep nickase domains cut single-stranded DNA in vitro for 1 h at 37 °C with 3 µM enzyme; only the middle of the 90-letter strands is printed. Values are log2 of uncut reads against the no-enzyme pool; strong cutting gives strongly negative numbers. There is no active / inactive call. Counts are relative to all reads; uncut strands gain when others are lost, and binding without cutting may add a little.

What was measured:
Assay in all cases: uncleaved DNA left, log2 of reads against the no-enzyme library (log2 ratio); higher = less cleavage (more negative = more Rep cleavage of the k-mer); sequences stand for … in CTCGTCCG…ACCGGAGA
[1] = tested on: T1, Rep nickase domain of Muscovy duck circovirus
T1 sequence (protein, residues 1-111, tag omitted): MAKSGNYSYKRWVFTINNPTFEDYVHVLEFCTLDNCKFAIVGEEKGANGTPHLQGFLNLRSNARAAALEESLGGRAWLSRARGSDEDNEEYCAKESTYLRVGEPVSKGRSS
Protocol: (§1)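 A pool of 90-nt single-stranded DNAs with seven random bases just before the constant AC of the nick site (name = the seven bases) was cut by 3 µM recombinant His6-SUMO-tagged Rep nickase domain (300 nM DNA, 50 mM HEPES pH 8.0, 50 mM NaCl, 1 mM MnCl2, 1 h, 37 °C, three replicates). Uncut DNA was amplified and sequenced.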

[2] = tested on: T2, Rep nickase domain of banana bunchy top virus
T2 sequence (protein, residues 1-94, tag omitted): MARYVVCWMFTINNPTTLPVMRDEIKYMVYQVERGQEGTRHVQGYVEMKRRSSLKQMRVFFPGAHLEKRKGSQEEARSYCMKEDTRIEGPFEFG
Protocol: as §1

[3] = tested on: T3, Rep nickase domain of cabbage leaf curl virus
T3 sequence (protein, residues 1-116, tag omitted): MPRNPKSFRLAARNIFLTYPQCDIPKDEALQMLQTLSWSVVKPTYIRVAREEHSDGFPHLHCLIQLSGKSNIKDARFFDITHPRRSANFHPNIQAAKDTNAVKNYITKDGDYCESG
Protocol: as §1

[4] = tested on: T4, Rep nickase domain of chickpea chlorotic dwarf virus
T4 sequence (protein, residues 1-124, tag omitted): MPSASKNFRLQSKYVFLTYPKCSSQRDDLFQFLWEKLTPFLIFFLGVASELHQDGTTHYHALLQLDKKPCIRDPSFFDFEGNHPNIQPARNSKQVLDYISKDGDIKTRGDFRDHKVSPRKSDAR
Protocol: as §1

[5] = tested on: T5, Rep nickase domain of faba bean necrotic yellows virus
T5 sequence (protein, residues 1-98, tag omitted): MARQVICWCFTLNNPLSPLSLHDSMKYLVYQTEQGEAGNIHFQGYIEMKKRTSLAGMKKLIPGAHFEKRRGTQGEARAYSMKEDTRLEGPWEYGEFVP
Protocol: as §1

[6] = tested on: T6, Rep nickase domain of maize striate mosaic virus
T6 sequence (protein, residues 1-117, tag omitted): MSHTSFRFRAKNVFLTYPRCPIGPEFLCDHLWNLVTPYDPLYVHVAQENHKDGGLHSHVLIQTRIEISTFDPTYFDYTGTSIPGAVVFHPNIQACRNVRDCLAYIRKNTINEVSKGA
Protocol: as §1

[7] = tested on: T7, Rep nickase domain of porcine circovirus 2
T7 sequence (protein, residues 2-116, tag omitted): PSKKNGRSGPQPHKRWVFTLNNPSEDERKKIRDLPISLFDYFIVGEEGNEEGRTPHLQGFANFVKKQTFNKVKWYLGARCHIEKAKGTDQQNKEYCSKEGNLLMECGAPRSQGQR
Protocol: as §1

[8] = tested on: T8, Rep nickase domain of tomato golden mosaic virus
T8 sequence (protein, residues 1-124, tag omitted): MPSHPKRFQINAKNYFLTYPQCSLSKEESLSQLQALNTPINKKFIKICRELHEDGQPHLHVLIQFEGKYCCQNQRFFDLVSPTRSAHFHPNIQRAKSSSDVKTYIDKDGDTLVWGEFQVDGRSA
Protocol: as §1

[9] = tested on: T9, Rep nickase domain of tomato yellow leaf curl virus
T9 sequence (protein, residues 1-136, tag omitted): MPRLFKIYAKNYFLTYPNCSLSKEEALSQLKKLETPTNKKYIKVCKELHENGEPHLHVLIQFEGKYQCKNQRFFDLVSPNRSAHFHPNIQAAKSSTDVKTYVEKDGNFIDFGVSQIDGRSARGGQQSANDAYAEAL
Protocol: as §1

[10] = tested on: T10, Rep nickase domain of wheat dwarf virus
T10 sequence (protein, residues 1-137, tag omitted): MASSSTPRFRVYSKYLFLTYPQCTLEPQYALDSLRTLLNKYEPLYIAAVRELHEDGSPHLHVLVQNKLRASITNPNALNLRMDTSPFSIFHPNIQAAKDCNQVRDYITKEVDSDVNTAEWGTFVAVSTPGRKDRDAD
Protocol: as §1

| Sequence | uncleaved DNA left (log2) [1] | uncleaved DNA left (log2) [2] | uncleaved DNA left (log2) [3] | uncleaved DNA left (log2) [4] | uncleaved DNA left (log2) [5] | uncleaved DNA left (log2) [6] | uncleaved DNA left (log2) [7] | uncleaved DNA left (log2) [8] | uncleaved DNA left (log2) [9] | uncleaved DNA left (log2) [10] |
| --- | --- | --- | --- | --- | --- | --- | --- | --- | --- | --- |
| CTCAAAC | 0.131 | 0.0701 | 0.0519 | -0.403 | -0.00538 | -0.725 | 0.103 | -0.0444 | 0.00116 | 0.0105 |
| CTACAGA | -0.0246 | 0.0457 | -0.174 | -1.7 | 0.0566 | -0.719 | 0.138 | 0.04 | -0.00405 | 0.0299 |
| ATTATCA | -0.0652 | 0.0814 | 0.618 | 0.885 | 0.0567 | 1.27 | 0.0604 | -0.0187 | 0.0945 | 0.23 |
| TCTAAAT | 0.07 | 0.1 | 0.0813 | -0.507 | 0.0753 | -0.287 | -0.18 | 0.0978 | -0.0372 | -0.0568 |
| CTTGATC | -0.0544 | 0.0772 | -0.0479 | -0.0602 | -0.015 | -0.898 | -0.0382 | -0.057 | -0.033 | 0.0685 |
| CCCGCCG | -0.141 | -0.0875 | -0.792 | -0.387 | -0.0485 | -0.881 | -0.0781 | -0.218 | -0.205 | -0.202 |
| GAAAGTA | -0.0169 | 0.035 | 0.13 | -0.776 | -0.0807 | 0.369 | 0.0352 | 0.0407 | 0.00718 | -0.0646 |
| GAGGAAT | 0.063 | 0.155 | 0.797 | 1.82 | 0.0243 | 2.12 | 0.148 | 0.182 | 0.0272 | 0.23 |
| GTAGTCC | 0.005 | 0.0669 | 0.318 | 0.803 | -0.103 | 1.57 | 0.102 | 0.0636 | 0.0351 | 0.096 |
| CTAAATG | 0.0245 | 0.178 | -0.5 | -0.563 | 0.000288 | -1.02 | 0.102 | 0.0791 | 0.0938 | 0.00896 |
| GAAACGT | 0.0918 | 0.143 | 0.265 | 0.219 | 0.0625 | 0.356 | 0.196 | 0.0781 | 0.163 | 0.163 |
| ACGTGGG | -0.0898 | -0.107 | -0.544 | -0.502 | 0.00766 | -0.865 | 0.148 | 0.0428 | -0.0574 | -0.0345 |
| AGACTCA | 0.0317 | 0.0713 | 0.507 | 1.21 | 0.0872 | 1.87 | 0.0107 | 0.068 | 0.103 | -0.0618 |
| TCACAGT | -0.0174 | 0.0451 | -0.213 | -1.41 | 0.00565 | -0.765 | 0.031 | -0.0793 | 0.0807 | -0.0597 |
| ACCACCT | -0.0946 | -0.0147 | -0.227 | -1.79 | 0.114 | -0.59 | 0.0234 | -0.0153 | -0.161 | 0.0597 |
| GGAGCTA | 0.0811 | 0.154 | 0.715 | 1.58 | 0.0707 | 2.03 | 0.149 | 0.0728 | 0.0766 | 0.319 |
| AGCCCGC | -0.013 | -0.0124 | 0.511 | 1.14 | -0.0516 | 0.789 | -0.0327 | -0.0328 | -0.128 | 0.077 |
| TTCGGAC | -0.129 | -0.0287 | 0.244 | 1.14 | -0.0878 | 1.18 | 0.0397 | 0.0234 | -0.017 | -0.0172 |
| AAACAAA | 0.0117 | -0.0203 | -0.109 | -1.03 | -0.0357 | -0.551 | -0.0172 | -0.0029 | -0.0647 | -0.0128 |
| CGCTAGC | -0.219 | 0.0265 | 0.215 | 0.536 | 0.0439 | 0.214 | -0.0829 | -0.0768 | -0.0592 | -0.074 |
| CCAAGTC | 0.0453 | 0.00654 | -0.94 | -0.923 | -0.0254 | -0.562 | 0.216 | -0.0633 | -0.024 | -0.00538 |
| CGCCGAG | 0.162 | 0.162 | 0.825 | 1.35 | 0.0785 | 0.94 | 0.0731 | 0.0815 | 0.157 | 0.269 |
| AAGTCTA | -0.0268 | -0.0657 | -0.113 | -2.36 | -0.0711 | 0.0809 | -2.79 | 0.0757 | 0.0679 | -0.00494 |
| GGATCGC | 0.0133 | 0.0857 | 0.368 | 0.915 | -0.0688 | 1.03 | 0.092 | -0.0855 | -0.0105 | 0.172 |
| GACCGCT | -0.00521 | 0.0052 | -0.19 | -0.984 | -0.00709 | -0.296 | -0.0578 | 0.0771 | 0.0369 | -0.0625 |
| CGTGGGG | 0.183 | 0.157 | 0.0643 | 0.463 | 0.0866 | 0.00464 | 0.234 | 0.122 | 0.162 | 0.0417 |
| AGCGATC | 0.11 | -0.000584 | 0.119 | 0.631 | -0.0177 | 1.05 | -0.0307 | 0.0258 | -0.0727 | 0.0744 |
| CTATATT | -4.11 | -3.34 | -3.4 | -3.53 | -0.778 | -2.65 | -3.69 | -3.72 | -0.126 | -3.47 |
| CGCGAGT | 0.0597 | -0.111 | -0.0695 | 0.0636 | -0.0453 | 0.021 | -0.0634 | -0.0439 | -0.0587 | -0.153 |
| CTGCTCA | 0.0162 | 0.0518 | -0.118 | -0.85 | -0.00609 | -0.788 | -0.2 | 0.0247 | 0.0646 | -0.00169 |
